The source of these data is paper PMC4336329 (PLoS ONE, 2015).

Screen size: about 310,000 compounds; about 14,000 (4.5%) showed an effect of 50% or more. The effect is printed as a negative number. This is one part of the list.
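Note: peak tail current of the secondary pulse compared with the same well before compound.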

human ether-à-go-go-related gene (hERG) potassium channel, sequence (Q12809 whole entry, looked up): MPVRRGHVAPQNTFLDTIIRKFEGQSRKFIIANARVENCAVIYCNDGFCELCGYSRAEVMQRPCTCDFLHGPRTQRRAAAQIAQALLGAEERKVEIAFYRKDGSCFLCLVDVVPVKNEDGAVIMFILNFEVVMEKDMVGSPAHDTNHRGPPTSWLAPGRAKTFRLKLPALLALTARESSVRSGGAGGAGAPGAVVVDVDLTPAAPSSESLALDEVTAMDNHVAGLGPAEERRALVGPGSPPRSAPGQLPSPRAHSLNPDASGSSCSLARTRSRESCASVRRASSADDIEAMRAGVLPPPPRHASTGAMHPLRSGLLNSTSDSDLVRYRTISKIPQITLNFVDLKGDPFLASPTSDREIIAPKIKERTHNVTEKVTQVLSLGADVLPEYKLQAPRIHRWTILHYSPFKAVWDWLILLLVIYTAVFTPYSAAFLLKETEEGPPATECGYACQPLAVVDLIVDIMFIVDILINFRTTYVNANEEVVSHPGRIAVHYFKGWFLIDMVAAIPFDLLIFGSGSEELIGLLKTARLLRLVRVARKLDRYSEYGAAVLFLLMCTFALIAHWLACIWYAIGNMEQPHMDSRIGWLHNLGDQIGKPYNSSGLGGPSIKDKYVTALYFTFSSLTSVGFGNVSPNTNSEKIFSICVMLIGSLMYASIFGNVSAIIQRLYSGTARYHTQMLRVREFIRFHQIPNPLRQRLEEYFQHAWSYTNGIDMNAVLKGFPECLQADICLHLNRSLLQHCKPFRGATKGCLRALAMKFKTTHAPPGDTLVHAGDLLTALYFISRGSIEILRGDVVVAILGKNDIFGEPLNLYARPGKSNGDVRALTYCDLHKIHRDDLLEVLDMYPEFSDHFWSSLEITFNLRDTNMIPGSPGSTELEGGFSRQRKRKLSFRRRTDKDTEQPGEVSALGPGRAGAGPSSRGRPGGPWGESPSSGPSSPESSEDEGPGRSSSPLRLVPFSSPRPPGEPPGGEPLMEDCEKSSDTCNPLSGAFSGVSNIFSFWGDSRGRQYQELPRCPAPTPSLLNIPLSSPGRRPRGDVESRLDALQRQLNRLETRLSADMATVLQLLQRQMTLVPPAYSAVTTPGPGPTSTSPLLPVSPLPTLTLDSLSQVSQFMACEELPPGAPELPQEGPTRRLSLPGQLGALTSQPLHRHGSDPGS

This experiment has as its target human ether-à-go-go-related gene (hERG) potassium channel (human, UniProt Q12809). In words: primary screen, population patch clamp on CHO cells stably expressing hERG.
Regarding `O=C(c1ccco1)N1CCN(Cc2ccc(Cl)cc2)CC1`, the “hERG current change (%, negative = inhibition) at 10uM” value is -14%.
As for `O=C(NNC(=O)c1ccccc1O)c1ccc(Cl)c(S(=O)(=O)N2CCCCC2)c1`, the figure is -22.5%; as for `CC/C(=C\C=C\[C@@H]1C=C[C@@H]2CCC[C@H]2[C@@H]1C(=O)c1ccc[nH]1)[C@@H]1O[C@@H]([C@@H](C)C(=O)[O-])CC[C@@H]1C.[Na+]`, -7.05%; as for `CCOC(=O)CCc1c(C)nc2cc(-c3ccc(Cl)cc3)[nH]n2c1=O`, -7.09%.
As for `CC(=O)Nc1ccc(S(=O)(=O)c2ccc([N+](=O)[O-])cc2)cc1`, the figure is -32.3%; as for `CCN(CC)c1ccc(NS(=O)(=O)c2ccc(OC)cc2)cc1`, -6.12%; as for `O=[N+]([O-])c1ccc(SCCc2ccccn2)cc1`, -44.3%.
Then `COCCn1nnnc1C(c1ccc(C(F)(F)F)cc1)N1CCOCC1` (stereo not shown), with 12.5%; and `Cc1nnc(NC(=O)CSc2ncnc3c2cnn3-c2ccccc2C)s1`, with 4.47%.
Take `COc1ccc(CNC(=O)CN(c2ccccc2)S(=O)(=O)N(C)C)cc1`: the “hERG current change (%, negative = inhibition) at 10uM” value worked out at 1.53%.
As for `CCC(C)Cn1c([O-])cc2nn(-c3nc4ccccc4s3)c(=O)c-2c1C.[Na+]` (stereo not shown), the figure is -21%; as for `N#CCCn1cc(C(=O)O)c(-c2cccc([N+](=O)[O-])c2)n1`, 13.8%; as for `C/C(=N\NC(=O)c1cc(O)cc(O)c1)c1ccc(NC(=O)Cc2ccccc2)cc1`, 14.2%.
As for `O=C(NCCN1C(=O)S/C(=C\c2ccc(F)cc2)C1=O)C1CCN(S(=O)(=O)c2cccs2)CC1`, the figure is -7.1%; as for `Cc1ccc(Cn2c(-n3nc(C)cc3C)nc3c2c(=O)[nH]c(=O)n3C)cc1`, -12.9%; as for `CN(C(=O)C(=O)c1cn(CC(=O)N2CCCC2)c2ccccc12)C1CCCCC1`, 1.82%.
Regarding `O=C(Nc1cc(F)c(Br)cc1F)c1ccc(Cl)cc1`, the “hERG current change (%, negative = inhibition) at 10uM” value is 15.3%.
Then `O=C1CC[C@@H](OCc2ccccc2)CCN1CC[C@H](Sc1ccccc1)c1ccccc1`, with -2.38%; and `O=C1CC2(CCOCC2)Oc2ccc3ccccc3c21`, with -6.48%.
As for `O=C(NCC1(O)CCCCC1)C1CCC(=O)N(CCc2ccccc2)C1` (stereo not shown), the figure is 35%.
Regarding `CC(C)(C)NC(=O)c1ccccc1NC(=O)C1CCCO1` (stereo not shown), the “hERG current change (%, negative = inhibition) at 10uM” value is reported as -0.0567%.
As for `CCOc1ccc(CN2CCCN(C)CC2)cc1`, the figure is -17%; as for `CCOc1ccc(CNC(=O)C2CCN(S(=O)(=O)CC)CC2)cc1OC`, -2.72%.
Then `C[C@@H](C(=O)NCCc1c[nH]c2ccccc12)[C@@H]1C[C@@]1(C)[C@@H](NC(=O)OCc1ccccc1)c1ccccc1`, with 25.5%; and `CCCCn1c(N)c(N(CC(C)C)C(=O)C2CCN(S(=O)(=O)c3ccc(C)cc3)CC2)c(=O)[nH]c1=O`, with 12.5%; and `Cc1ccc(/C=C2/C(=O)N(c3ccccc3)C(=S)N2C)o1`, with 2.75%.
As for `Cn1nnc(NC(=O)c2ccc([N+](=O)[O-])cc2Cl)n1`, the figure is -2.06%; as for `CN(CCC1CCOCC1)C(=O)CC1C(=O)NCCN1Cc1ccccc1F` (stereo not shown), 4.08%; as for `COc1ccc(/C=C2\CCn3c2nc2cc(C(=O)O)ccc2c3=O)cc1OC`, 6.7%.
`CCOc1cccc(=[NH+]C2CCCCC2)c2c(C)n(C)c(C)c12.[O-][Cl+3]([O-])([O-])[O-]`: the “hERG current change (%, negative = inhibition) at 10uM” value is -70.3%.
As for `COc1cc([N+](=O)[O-])cc2sc(NC(=O)C(C)(C)C)nc12`, the figure is 6.2%.
As to `COc1cccc(CNc2ccc3c(c2)ncn3C)c1OC`, the “hERG current change (%, negative = inhibition) at 10uM” value is listed as 19.9%.
As for `O=C(O)/C=C/C(=O)NNC(=O)c1cc(-c2ccccc2)n[nH]1`, the figure is 24.1%; as for `CCn1c(CNc2ccc(C)cc2)nnc1SCC(N)=O`, 9.46%.
Turning to `Cc1ccc(-n2ncc3c2CC(C)(C)CC3NC(=O)CCc2cnn(C)c2)cc1` (stereo not shown), the “hERG current change (%, negative = inhibition) at 10uM” value is on record as -52.6%.
For the compound `CC(C)c1cc(C(=O)NNC(=S)NC2CCCCC2)cs1`, the “hERG current change (%, negative = inhibition) at 10uM” value was determined as 4.74%.
Then `CCc1ccc(-c2nc(CN3CCCC(C(=O)NCCc4ccc(OC)c(OC)c4)C3)c(C)o2)cc1` (stereo not shown), with -50.5%; and `C=CCn1c(SCC(=O)Nc2cc(C)c(Cl)cc2OC)nnc1-c1ccco1`, with -23.6%.
For the compound `C(=N\NC1=NCCCCC1)/c1c[nH]c2ccccc12.Cl`, the “hERG current change (%, negative = inhibition) at 10uM” value was -24.3%.
For `COC(=O)c1cn(CC(=O)N2C(C)CCCC2C)c2ccccc12` (stereo not shown), the “hERG current change (%, negative = inhibition) at 10uM” value is reported as -0.901%.
Then `O=C(CSc1nc2[nH]ncc2c(=O)[nH]1)NCc1ccccc1Cl`, with 6.86%; and `Cc1ccc(-n2c(O)c(C=NC3CCS(=O)(=O)C3)c3ccccc3c2=O)cc1` (stereo not shown), with -3.54%.
Then `CON/C=C(\C=Nc1ccc(F)cc1)c1ncc(C(F)(F)F)cc1Cl`, with 6.26%.
